Test results reported in the supplement of paper PMC11876631.
Substitutions are numbered along the chain they refer to. Names and notes keep the numbering of the source. ± gives the standard deviation of the averaged measurements. Laboratory Escherichia coli strains with one amino-acid change in an essential protein, pooled on minimal glucose agar with carbenicillin or gentamicin at twice the control MIC (plus kanamycin and chloramphenicol for the plasmids), 48 h. Fold change of barcode share against drug-free plates; higher = less susceptible. Active = above 20 in both replicates (the paper's putatively resistant). '<' = one read or none on drug, '>' = one read or none on a drug-free plate. Shares are relative, so most strains fall below 1 when a few take over. Listed are strains with at least 15 reads on both drug-free plates, and hits; most hits rest on fewer reference reads. Replicate rank correlation about 0.5. Edits are read from barcodes.

B1: metB I80Q (protein)
chain: MTRKQATIAVRSGLNDDEQYGCVVPPIHLSSTYNFTGFNEPRAHDYSRRGNPTRDVVQRALAELEGGAGAVLTNTGMSAQHLVTTVFLKPGDLLVAPHDCYGGSYRLFDSLAKRGCYRVLFVDQGDEQALRAALAEKPKLVLVESPSNPLLRVVDIAKICHLAREVGAVSVVDNTFLSPALQNPLALGADLVLHSCTKYLNGHSDVVAGVVIAKDPDVVTELAWWANNIGVTGGAFDSYLLLRGLRTLVPRMELAQRNAQAIVKYLQTQPLVKKLYHPSLPENQGHEIAARQQKGFGAMLSFELDGDEQTLRRFLGGLSLFTLAESLGGVESLISHAATMTHAGMAPEARAAAGISETLLRISTGIEDGEDLIADLENGFRAANKG
B2: metB I80D (protein)
chain: B1 chain with Q80D
B3: metB I80P (protein)
chain: B1 chain with Q80P
B4: metB I156Q (protein)
chain: B1 chain with Q80I, I156Q
B5: metB V24A (protein)
chain: B1 chain with V24A, Q80I
B6: metB V24Q (protein)
chain: B1 chain with V24Q, Q80I

Target: Escherichia coli (laboratory strain)
Test: barcode share on antibiotic plates over drug-free plates; higher = less susceptible
Conditions: antibiotic: carbenicillin; 2× MIC (3.1 µg/mL)
Experimental: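 A pool of E. coli strains, each edited to carry one amino-acid change in an essential protein, was grown for 48 h on minimal glucose agar with or without antibiotic; strain barcodes were sequenced; mean of two replicates.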

| Protein | fold change of barcode share |
| --- | --- |
| B1 | 0.487 ± 0.12 |
| B2 | 0.772 ± 0.5 |
| B3 | 0.866 ± 0.029 |
| B4 | 0.324 ± 0.061 |
| B5 | 0.216 ± 0.054 |
| B6 | 0.411 ± 0.23 |

Same assay, conditions: antibiotic: gentamicin; 2× MIC (MIC 0.45 µg/mL)

| Protein | fold change of barcode share |
| --- | --- |
| B1 | 0.0106 ± 0.0034 |
| B2 | 0.00905 ± 0.00054 |
| B3 | 0.0173 ± 0.003 |
| B5 | < 0.0139 |
| B6 | 0.033 ± 0.018 |
